# Measured values taken from PMC4336329 (PLoS ONE, 2015).
# About 2,200 (0.71%) of roughly 310,000 compounds showed an effect of 50% or more. Effects have a minus sign here. The list shows a part of the results.
# Target: human ether-à-go-go-related gene (hERG) potassium channel (human, UniProt Q12809)
# Test: primary screen, population patch clamp on CHO cells stably expressing hERG
# Chain of human ether-à-go-go-related gene (hERG) potassium channel (Q12809 whole entry, looked up): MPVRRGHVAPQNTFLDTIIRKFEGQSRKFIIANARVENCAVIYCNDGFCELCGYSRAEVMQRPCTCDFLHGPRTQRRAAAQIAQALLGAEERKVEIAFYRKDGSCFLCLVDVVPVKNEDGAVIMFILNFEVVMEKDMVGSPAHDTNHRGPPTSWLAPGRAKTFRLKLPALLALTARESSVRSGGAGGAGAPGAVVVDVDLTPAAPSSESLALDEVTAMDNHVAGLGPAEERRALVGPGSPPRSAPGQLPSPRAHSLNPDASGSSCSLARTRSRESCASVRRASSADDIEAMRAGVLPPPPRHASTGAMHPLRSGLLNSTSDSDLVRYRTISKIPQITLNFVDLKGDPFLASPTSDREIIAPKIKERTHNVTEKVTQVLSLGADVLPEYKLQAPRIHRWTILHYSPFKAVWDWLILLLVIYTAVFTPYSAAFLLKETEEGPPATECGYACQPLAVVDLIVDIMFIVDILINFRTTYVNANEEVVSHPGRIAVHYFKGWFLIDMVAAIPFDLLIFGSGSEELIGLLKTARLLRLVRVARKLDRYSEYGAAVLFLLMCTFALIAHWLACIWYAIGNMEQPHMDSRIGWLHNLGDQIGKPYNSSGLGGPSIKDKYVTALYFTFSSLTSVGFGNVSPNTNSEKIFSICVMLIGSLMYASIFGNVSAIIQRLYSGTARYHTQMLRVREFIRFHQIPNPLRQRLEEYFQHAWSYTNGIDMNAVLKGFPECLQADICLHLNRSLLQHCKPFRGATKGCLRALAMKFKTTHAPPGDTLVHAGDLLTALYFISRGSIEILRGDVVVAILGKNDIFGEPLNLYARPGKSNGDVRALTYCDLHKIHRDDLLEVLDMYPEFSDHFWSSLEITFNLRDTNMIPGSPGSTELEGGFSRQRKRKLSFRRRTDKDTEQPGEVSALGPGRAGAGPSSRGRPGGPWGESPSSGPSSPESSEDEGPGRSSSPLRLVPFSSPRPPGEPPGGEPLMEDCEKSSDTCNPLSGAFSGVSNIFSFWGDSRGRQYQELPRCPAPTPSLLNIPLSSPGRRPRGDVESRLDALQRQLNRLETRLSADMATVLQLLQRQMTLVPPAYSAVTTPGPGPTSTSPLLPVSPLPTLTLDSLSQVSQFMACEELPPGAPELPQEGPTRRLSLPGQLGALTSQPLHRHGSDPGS
row,Compound,"hERG current change (%, negative = inhibition) at 1uM [%]"
1,O=C(Nc1ccccc1C(F)(F)F)N1CCN(c2ccc3nncn3n2)CC1,9.93
2,Cc1nnc(SCC(=O)Nc2ccc([N+](=O)[O-])cc2)n1CC1CCCO1 (centres unmarked),-4.3
3,CS(=O)(=O)N(CC(=O)N1CCN(c2cccc(Cl)c2)CC1)C1CCCCC1,9.72
4,O=C(CNC(=O)c1ccco1)NCC(=O)OC(C(=O)c1ccccc1)c1ccc(Cl)cc1 (centres unmarked),8.37
5,CN1CCN(S(=O)(=O)c2cccc(C(=O)N3CCN(c4ccccc4F)CC3)c2)CC1,4.57
6,Cc1ccc2c(c1)C(=O)C(=O)N2CCOc1ccccc1,11.5
7,CCc1cc2c(SCC(=O)C(C#N)=C3N(C)c4ccccc4N3C)ncnc2s1,5.27
8,CNC(=O)c1ccccc1-c1ccccc1,1.15
9,CN1CCN(Cc2ccccc2C(F)(F)F)CC1,8.81
10,Cc1ccc(CC2C(=O)N(c3ccc(C)cc3)C(=O)C2C)cc1 (centres unmarked),15.5
11,Cc1ccc(C(=O)N/C(=C/c2cccs2)C(=O)NCc2ccco2)cc1,3.04
12,O=C(COC(=O)/C=C/c1cn(-c2ccccc2)nc1-c1ccc2c(c1)OCCO2)NC1CCS(=O)(=O)C1 (centres unmarked),4.5
13,COc1ccc(N2C(=O)C(CC(=O)O)S/C2=C\C(C)=O)cc1 (centres unmarked),15.6
14,Cn1c(CCc2ccccc2)nnc1SCC(=O)N1CCOCC1,-4.47
15,O=C(COc1ccc(/C=N/NC(=O)c2ccccc2)cc1)Nc1ccc([N+](=O)[O-])cc1,16.2
16,CN(CC(=O)Nc1ccc(N2CCOCC2)cc1)C(=O)Cc1ccccc1,7.9
17,COCCCn1c2nc3ccccc3nc2c2c(=O)n(Cc3ccccc3Cl)cnc21,16.4
18,CCOC(=O)c1ccc(NC(=O)N2CCN(C(=O)C3CCCO3)CC2)cc1 (centres unmarked),3.45
19,COc1ccc(S(=O)(=O)N2C3CCC2CC(NC(=O)C2CC2)C3)cc1 (centres unmarked),23.5

row,Compound,"hERG current change (%, negative = inhibition) at 1uM [%]"
1,CCOc1ccccc1/C=C/c1onc(C)c1S(=O)(=O)N1CCC(C(=O)N2CCCCCC2)CC1,6.97
2,O=C(CC(=O)Nc1ccc(Cl)c(Cl)c1)N/N=C/c1ccc(O)cc1,4.9
3,Cn1cc(/C=N/n2cnc3scc(-c4ccc(Cl)cc4)c3c2=O)c2ccccc21,7.93
4,NS(=O)(=O)c1ccc(CCNC(=O)c2cccc(S(=O)(=O)N3CCCC3)c2)cc1,-5.92
5,CC(C)Cn1c(-c2cccs2)nc2nc3ccccc3nc21,7.53
6,O=C(O)C1CCCN1S(=O)(=O)c1ccc(Cl)c(Cl)c1 (centres unmarked),7.47
7,Cl.O=C(c1cccc(S(=O)(=O)N2CCCC2)c1)N1CCN(Cc2ccccc2)CC1,-3.03
8,Cc1cccc(C(=O)N=c2sccn2C)c1[N+](=O)[O-],5.88
9,O=C(c1ccoc1)N1CCC2(CC1)Oc1ccc(Cl)cc1C(=O)C21CC(c2cccnc2)=NO1 (centres unmarked),4.16
10,COc1cc(/C=N/NC(=O)c2cc(-c3cccs3)nc3ccccc23)ccc1O,6.05
11,Cc1cc(C(=O)N/N=C/c2sccc2C)no1,16.9
12,COc1ccc(C(CC(=O)NCc2ccccc2)C(C)C)cc1 (centres unmarked),10.4
13,O=C1/C(=C/c2cccnc2)CCC/C1=C\c1cccnc1,7.03
14,CCN(CC)C(=O)CN1CCC(n2c(C)nc3cc(C(F)(F)F)ccc32)CC1,-2.16
15,Cc1cc(=O)oc2cc(OCC(=O)OCC(=O)N3CCC(C)CC3)ccc12,13.5
16,CN(C)S(=O)(=O)c1ccc(Nc2ccc(-c3ccc4c(c3)OCCO4)nn2)cc1,4.91
17,O=C(N/C(=C\c1ccc([N+](=O)[O-])cc1)C(=O)N1CCCCC1)c1ccccc1Br,-1.92
18,Cc1ccc(C(=O)CCC(=O)NN2C(=O)NC3(CCCCC3)C2=O)cc1,17.3
19,COc1coc(/C=C/C(=O)O)cc1=O,-0.733

row,Compound,"hERG current change (%, negative = inhibition) at 1uM [%]"
1,Cc1ccc2c(c1)N(CC(=O)N1CCCC(C)C1)C(=O)CO2 (centres unmarked),13.4
2,CC1(C)OC(=O)C(=CNc2ccccc2F)C(=O)O1,1.48
3,Cc1ccc(OCc2nc3c4c(ncn3n2)-c2ccccc2CC42CCCC2)cc1,11.9
4,O=C(CNC(=O)c1ccncc1)Nc1ccc(F)c(F)c1,-6.33
5,COc1ccccc1NC(=O)C(C)OC(=O)CCCOc1ccccc1 (centres unmarked),7.07
6,Cc1ccccc1C(=O)OC1OC(=O)C(Cl)=C1N1CCOCC1 (centres unmarked),6.26
7,CCCOc1ccc(CCC(=O)N/N=C/c2ccco2)cc1,9.95
8,O=C(COC(=O)/C=C/c1ccc(Cl)cc1)Nc1ccc2c(c1)OCCO2,5.94
9,C=CCNC(=S)N/N=C(\C)c1cc(OC)c(OC)c(OC)c1,5.67
10,O=C(CC1SC(=Nc2ccccc2)N(Cc2ccccn2)C1=O)Nc1ccc(Br)cc1 (centres unmarked),18.7
11,Cc1ccccc1NC(=O)Cc1ccccc1,15.3
12,CCC(=O)c1cc(F)c(N2CCN(C(=O)c3ccco3)CC2)cc1C,5.47
13,Cc1ccc(NC(=S)N2CCN(S(=O)(=O)c3ccccc3)CC2)cc1C,13.5
14,CC(O)[C@H]1CN=C(N)N1CCc1cc(C(F)(F)F)cc(C(F)(F)F)c1 (some centres unmarked),15.3
15,COc1cccc(/C=C/C2=CC(C)(C)NC(=S)N2)c1,16.5
16,O=S(=O)(c1ccc(N2CCN(CCO)CC2)nc1)N1CCCCC1,8.73
17,Cc1nnc(SCCn2c(N3CCN(C)CC3)nc3c2c(=O)n(C)c(=O)n3C)s1,6.36
18,Cc1nnc(NC(=O)Cc2cccs2)s1,1.69
